Results taken from publication PMC6891891.
No constants are given. Whether binding was seen depends on the method and setting. Some binding calls cover weakened binding; strength is not graded here. Where a sequence is shown, tags or fusion partners need not be part of it.

Experiments:
[1] = target: T1, Slx5 subunit of the Slx5/8 STUbL, Y2H fusion (S. cerevisiae) (UniProt P32828); assay: two-hybrid; directed Y2H: pGAD-C1 (AD) and pGBD-C1 (BD) fusions cotransformed into the Y2HGold strain; HIS3 reporter, 8 mM 3-AT added in Figure 4D
T1 sequence: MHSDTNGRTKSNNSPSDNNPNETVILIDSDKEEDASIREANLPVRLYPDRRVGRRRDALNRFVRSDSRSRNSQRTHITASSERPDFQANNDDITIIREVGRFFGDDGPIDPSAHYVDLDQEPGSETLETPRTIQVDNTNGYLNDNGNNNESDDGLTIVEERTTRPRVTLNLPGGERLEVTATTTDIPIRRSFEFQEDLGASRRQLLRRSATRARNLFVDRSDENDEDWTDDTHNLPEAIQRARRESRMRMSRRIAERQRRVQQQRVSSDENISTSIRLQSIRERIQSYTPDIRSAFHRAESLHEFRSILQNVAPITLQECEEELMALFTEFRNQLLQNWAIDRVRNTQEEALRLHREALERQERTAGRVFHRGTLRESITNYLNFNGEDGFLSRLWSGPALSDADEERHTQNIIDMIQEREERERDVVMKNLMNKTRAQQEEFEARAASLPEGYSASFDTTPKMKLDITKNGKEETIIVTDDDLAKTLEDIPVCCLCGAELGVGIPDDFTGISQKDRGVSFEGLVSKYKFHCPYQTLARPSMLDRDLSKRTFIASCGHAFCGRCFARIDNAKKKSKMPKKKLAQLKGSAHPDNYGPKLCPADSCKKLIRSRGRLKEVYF

[2] = target: T2, Cdc48 substrate-recruiting co-factor Ufd1, Y2H fusion (S. cerevisiae) (UniProt P53044); assay: as above
T2 sequence: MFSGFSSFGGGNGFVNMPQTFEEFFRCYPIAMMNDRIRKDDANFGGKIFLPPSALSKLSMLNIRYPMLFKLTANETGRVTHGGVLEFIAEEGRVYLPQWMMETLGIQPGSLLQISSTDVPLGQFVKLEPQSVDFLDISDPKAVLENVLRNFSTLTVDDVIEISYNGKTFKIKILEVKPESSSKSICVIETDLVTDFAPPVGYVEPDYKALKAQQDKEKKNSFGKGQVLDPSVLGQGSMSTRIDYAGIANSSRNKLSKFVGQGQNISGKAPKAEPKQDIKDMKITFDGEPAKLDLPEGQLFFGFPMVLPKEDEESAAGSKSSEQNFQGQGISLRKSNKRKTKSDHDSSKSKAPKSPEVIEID

[3] = target: T1, Slx5 subunit of the Slx5/8 STUbL, Y2H fusion (S. cerevisiae); assay: condition: only in a Y2H reporter strain lacking both Siz1 and Siz2; two-hybrid; directed Y2H in a reporter strain in which both SUMO ligases Siz1 and Siz2 were deleted (Figure 4E)
[4] = target: T3, catalytically dead Ulp2 (Ulp2-C624S), AD-fusion and BD-fusion for Y2H (S. cerevisiae) (UniProt P40537); assay: as above
T3 sequence: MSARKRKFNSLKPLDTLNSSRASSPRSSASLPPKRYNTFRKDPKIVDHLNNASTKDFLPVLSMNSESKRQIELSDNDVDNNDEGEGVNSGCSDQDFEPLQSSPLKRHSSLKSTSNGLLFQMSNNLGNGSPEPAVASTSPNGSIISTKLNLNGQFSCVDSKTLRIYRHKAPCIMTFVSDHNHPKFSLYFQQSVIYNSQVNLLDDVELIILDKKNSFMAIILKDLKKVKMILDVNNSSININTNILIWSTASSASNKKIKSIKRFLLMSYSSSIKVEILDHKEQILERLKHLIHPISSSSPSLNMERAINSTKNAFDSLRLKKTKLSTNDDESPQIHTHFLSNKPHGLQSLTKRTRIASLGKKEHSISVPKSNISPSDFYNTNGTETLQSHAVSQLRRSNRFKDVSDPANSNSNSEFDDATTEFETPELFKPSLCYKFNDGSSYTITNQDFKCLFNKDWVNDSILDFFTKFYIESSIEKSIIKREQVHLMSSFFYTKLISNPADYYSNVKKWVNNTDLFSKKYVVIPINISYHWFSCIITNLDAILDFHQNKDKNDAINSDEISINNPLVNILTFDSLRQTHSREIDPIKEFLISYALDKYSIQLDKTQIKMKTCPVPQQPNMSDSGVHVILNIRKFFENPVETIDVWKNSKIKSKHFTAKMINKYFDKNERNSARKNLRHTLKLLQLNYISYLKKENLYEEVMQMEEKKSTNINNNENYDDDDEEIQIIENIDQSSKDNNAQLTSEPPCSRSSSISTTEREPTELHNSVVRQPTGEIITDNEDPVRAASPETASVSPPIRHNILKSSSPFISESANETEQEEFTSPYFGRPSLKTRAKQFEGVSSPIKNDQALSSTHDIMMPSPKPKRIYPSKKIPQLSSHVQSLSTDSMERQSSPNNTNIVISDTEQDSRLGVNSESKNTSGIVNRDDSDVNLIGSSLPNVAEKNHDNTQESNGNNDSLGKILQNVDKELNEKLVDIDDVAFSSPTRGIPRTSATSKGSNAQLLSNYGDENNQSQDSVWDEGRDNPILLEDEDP

binding [1]: binds
binding [2]: binds
binding [3]: no binding
binding [4]: no binding
B1: Dbf4, AD-fusion and BD-fusion for Y2H (protein, UniProt P32325 1-704)
chain: MVSPTKMIIRSPLKETDTNLKHNNGIAASTTAAGHLNVFSNDNNCNNNNTTESFPKKRSLERLELQQQQHLHEKKRARIERARSIEGAVQVSKGTGLKNVEPRVTPKELLEWQTNWKKIMKRDSRIYFDITDDVEMNTYNKSKMDKRRDLLKRGFLTLGAQITQFFDTTVTIVITRRSVENIYLLKDTDILSRAKKNYMKVWSYEKAARFLKNLDVDLDHLSKTKSASLAAPTLSNLLHNEKLYGPTDRDPRTKRDDIHYFKYPHVYLYDLWQTWAPIITLEWKPQELTNLDELPYPILKIGSFGRCPFIGDRNYDESSYKRVVKRYSRDKANKKYALQLRALFQYHADTLLNTSSVNDQTKNLIFIPHTCNDSTKSFKKWMQEKAKNFEKTELKKTDDSAVQDVRNEHADQTDEKNSILLNETETKEPPLKEEKENKQSIAEESNKYPQRKELAATPKLNHPVLATFARQETEEVPDDLCTLKTKSRQAFEIKASGAHQSNDVATSFGNGLGPTRASVMSKNMKSLSRLMVDRKLGVKQTNGNNKNYTATIATTAETSKENRHRLDFNALKKDEAPSKETGKDSAVHLETNRKPQNFPKVATKSVSADSKVHNDIKITTTESPTASKKSTSTNVTLHFNAQTAQTAQPVKKETVKNSGYCENCRVKYESLEQHIVSEKHLSFAENDLNFEAIDSLIENLRFQI
